Experimental findings from PMC12056497 are described below.

Chains of the proteins cited; added tags and fusions are not shown. Lines headed by an entry give the natural chain unless they say otherwise; changes in a name come on top.
UniProt Q9NPQ8: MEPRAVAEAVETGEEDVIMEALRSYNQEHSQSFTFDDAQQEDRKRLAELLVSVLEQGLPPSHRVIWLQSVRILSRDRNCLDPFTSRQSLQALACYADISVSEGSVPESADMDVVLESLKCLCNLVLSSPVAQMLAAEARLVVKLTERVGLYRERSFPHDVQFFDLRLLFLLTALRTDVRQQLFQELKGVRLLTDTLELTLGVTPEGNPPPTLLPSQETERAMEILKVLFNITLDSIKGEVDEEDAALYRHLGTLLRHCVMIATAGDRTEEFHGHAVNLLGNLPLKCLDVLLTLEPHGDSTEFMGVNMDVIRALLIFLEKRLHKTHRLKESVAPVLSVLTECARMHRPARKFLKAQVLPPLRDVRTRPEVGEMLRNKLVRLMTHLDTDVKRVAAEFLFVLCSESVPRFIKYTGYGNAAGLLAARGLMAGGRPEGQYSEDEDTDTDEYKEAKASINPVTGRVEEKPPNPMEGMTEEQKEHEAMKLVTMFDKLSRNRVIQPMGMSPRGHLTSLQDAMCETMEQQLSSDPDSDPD
UniProt P16520: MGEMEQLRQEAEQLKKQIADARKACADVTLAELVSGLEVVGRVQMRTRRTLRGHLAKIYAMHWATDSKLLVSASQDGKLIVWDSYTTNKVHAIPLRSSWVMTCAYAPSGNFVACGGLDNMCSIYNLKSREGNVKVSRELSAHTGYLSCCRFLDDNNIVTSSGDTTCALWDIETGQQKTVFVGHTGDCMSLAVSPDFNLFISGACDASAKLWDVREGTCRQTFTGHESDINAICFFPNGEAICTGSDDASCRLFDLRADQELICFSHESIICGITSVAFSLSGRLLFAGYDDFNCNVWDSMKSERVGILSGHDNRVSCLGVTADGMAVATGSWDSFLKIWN
UniProt P09471: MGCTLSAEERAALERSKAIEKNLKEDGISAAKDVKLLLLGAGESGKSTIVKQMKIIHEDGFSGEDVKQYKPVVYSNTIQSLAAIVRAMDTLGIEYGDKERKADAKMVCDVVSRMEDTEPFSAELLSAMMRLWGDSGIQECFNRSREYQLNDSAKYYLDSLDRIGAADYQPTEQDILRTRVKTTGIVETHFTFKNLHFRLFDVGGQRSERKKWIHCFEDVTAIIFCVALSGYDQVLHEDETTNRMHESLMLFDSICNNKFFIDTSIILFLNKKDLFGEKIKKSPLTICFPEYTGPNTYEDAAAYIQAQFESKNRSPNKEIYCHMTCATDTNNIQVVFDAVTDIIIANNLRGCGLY

One experiment addresses GFP-Ric8A (UniProt Q9NPQ8). Nature of the experiment: co-IP; cells (N2a by the results, HEK293T by the methods) co-transfected with GFP-Ric8A and untagged Gαo; IP with a recombinant GST-tagged nanobody against GFP; Western blot with anti-GFP and anti-Gαo. (In western blotting, separated proteins are transferred to a membrane and probed.)
Another experiment deals with T1, NLuc-RGS19 (UniProt P49795).
T1 sequence: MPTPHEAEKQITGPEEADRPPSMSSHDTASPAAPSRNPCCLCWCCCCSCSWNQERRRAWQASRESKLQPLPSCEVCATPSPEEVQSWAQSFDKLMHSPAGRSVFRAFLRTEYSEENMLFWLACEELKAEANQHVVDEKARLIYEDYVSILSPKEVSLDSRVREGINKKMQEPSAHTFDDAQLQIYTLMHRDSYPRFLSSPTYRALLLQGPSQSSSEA
Put plainly: FRET or BRET; HEK293T co-transfected with NLuc-RGS19 and Gαo internally tagged with GFP at Gly92 (1:5 ratio); furimazine 10 µM; NanoBRET filter. A general note: In BRET a luciferase serves as donor, and the signal depends on an acceptor being close.

Experiment [1] addresses Gβ3γ9 heterodimer (Venus tag on the Gγ9 subunit, from the Go1-CASE plasmid) (UniProt P16520). Nature of the experiment: FRET or BRET; Gβ3γ9 displacement assay: HEK293T co-transfected with the Go1-CASE plasmid and pcDNA3.1 or nontagged Gαo (1:3 ratio); loss of net BRET signal = displacement of the tagged Gαo from Gβγ.
The target in another experiment is T2, EGFP-RGS19 (UniProt P49795).
T2 sequence: T1 sequence
Nature of the experiment: co-IP; HEK293T co-transfected 24 h with GFP-RGS19 and nontagged Gαo at equal plasmid ratios; IP with a recombinant GST-tagged nanobody against GFP; Western blot with anti-GFP and anti-Gαo.

No constants are given. Whether binding was seen depends on the method and setting. Binding seen in cells or lysates may run through a third protein. Some binding calls cover weakened binding; strength is not graded here. For some assays here: Sequences can lack the tags named with a protein.

On to “Gαo G203R, nontagged (highly pathogenic variant, positive control) (from UniProt P09471-1 1-354)”, for which the binding entry with GFP-Ric8A was “binds”.
On to “Gαo^G92-GFP Q205L (from UniProt P09471-1 1-354)”, for which the binding entry with NLuc-RGS19 is listed as “binds”.
As to “Gαo wild-type, NanoLuc-tagged (from the Go1-CASE plasmid) (from UniProt P09471 1-354)”, the binding entry in experiment [1] was “binds”.
For the substance “Gαo wild-type, nontagged (in pcDNA3.1+) (from UniProt P09471-1 1-354)”, the binding entry (with EGFP-RGS19; in experiment [1]) was “binds” in each case.
Consider “Gαo Q205L, nontagged (constitutively active) (from UniProt P09471-1 1-354)”, for which the binding entry in the experiment with EGFP-RGS19 is “binds”.
Regarding “Gαo C225R, nontagged (p.(Cys225Arg)) (from UniProt P09471-1 1-354)”, the binding entry with GFP-Ric8A is recorded as “binds”; in experiment [1] it was “no binding”.
“Gαo^G92-GFP wild-type (internal GFP-tag at Gly92) (from UniProt P09471-1 1-354)”: the binding result with NLuc-RGS19 was “binds”.
For “Gαo C225Y, nontagged (p.(Cys225Tyr)) (from UniProt P09471-1 1-354)”, the results for the binding result (in the experiment with GFP-Ric8A; in experiment [1]) were “binds” and “no binding”, respectively.
